PubChem BioAssay AID686978 (National Center for Advancing Translational Sciences (NCATS), 2013)
Where “and” joins values, the source holds several entries; their conditions need not be identical. Equal entries are not always repeated. About 64,000 (15%) of roughly 420,000 compounds were called active. The shares of active, inactive and inconclusive entries below differ from those in the screen. Calls follow the shape of the dose curve; as a rule, active = well fitted inhibition curve with a large enough effect; inconclusive = small, poorly fitted or top-dose-only effect; inactive = flat fitted curve, though single readings scatter. Potencies of inconclusive entries are doubtful fits and often do not repeat.

Assay: qHTS for Inhibitors of human tyrosyl-DNA phosphodiesterase 1 (TDP1): qHTS in cells in absence of CPT; also: nearly all actives have a fitted effect of over 55% in size
Conditions: DT40 Tdp1-/- hTDP1 cells, no CPT, ATP luminescence, 48 h; activity change, negative = growth inhibition: at 46.2 µM (top of the series)
Method in brief: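 A cellular qHTS used chicken DT40 cells lacking endogenous Tdp1 but carrying stably transfected human TDP1. Compounds were applied without camptothecin, and cell growth kinetics were judged by ATP-dependent luminescence after ≥48 hr.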
% is scaled to controls: 0 for no effect and ±100 for the full control effect; potency is read from the fitted curve at half-maximal effect; tags tell the direction and shape of the fitted curve.

SMILES | Potency | activity change, negative = growth inhibition
C=C[C@@](C)(O)CC[C@@H]1[C@@]2(C)CCCC(C)(C)[C@@H]2CC[C@@]1(C)O | inconclusive: 33.5 µM [inhibitor, single point] and inconclusive: 29.1 µM [inhibitor, single point] | –
CCS(=O)(=O)N1CCN(Cc2ccc([N+](=O)[O-])cc2)CC1 | – | inconclusive: -35.7% [inhibitor]
N#CCn1c2ccccc2c2nc3ccccc3nc21 | inconclusive: 29.1 µM [inhibitor, partial curve, poor fit] | –
CN(c1ccc(OC(=O)CC2OC(=O)c3ccccc32)cc1)S(=O)(=O)c1ccccc1 (stereo not drawn) | inactive | –
CCOc1ccc(NS(=O)(=O)c2ccc(C(=O)NCC3(N4CCCCC4)CCCCC3)cc2)cc1 | inconclusive: 29.1 µM [inhibitor, single point] | –
CCOC(=O)c1sc(NC(=O)CSc2nnc(Cc3ccccc3)o2)c(C#N)c1C | active: 16.4 µM | –
COc1ccc(C)cc1NC(=O)CN(C)S(=O)(=O)c1cc(C)ccc1OC | inconclusive: 9.2 µM [inhibitor, partial curve] | –
COc1ccc(NC(=O)C(=O)c2cn(CC(=O)N3CCCC3)c3ccccc23)cc1OC | active: 13 µM | –
CC(C)Cc1ccc(C(C)C(=O)Nc2ccccc2O)cc1 (stereo not drawn) | active: 8.2 µM | –
Cc1ccc(C(=O)NC(=S)Nc2cccc(NC(=O)c3ccccc3)c2)cc1[N+](=O)[O-] | active: 16.4 µM | –
COc1ccc(NS(=O)(=O)c2cc(NC(=O)c3ccc(=O)[nH]c3)ccc2N2CCCC2)cc1 | active: 7.31 µM | –
c1ccc(CNc2ncnc3c2ncn3Cc2ccccc2)cc1 | inconclusive: 35.5 µM [inhibitor, single point] | –
O=C(Nc1ccc(Cl)c(S(=O)(=O)N2CCOCC2)c1)c1ccc2c(c1)OCO2 | inconclusive: 20.6 µM [inhibitor, single point] | –
CCC(=O)Nc1nc2ccc(NC(C)=O)cc2s1 | inactive | –
O=C1CSC(=S)N1Cc1ccccc1 | active: 20.6 µM | –
COc1ccc(CCNC(=O)CCn2c(=O)c3cccn3c3ccc(F)cc32)cc1OC | active: 16.4 µM | –
CC1CC(=O)N(CC(=O)Nc2ccc(F)cc2)c2ccccc2S1(=O)=O (stereo not drawn) | inactive | –
COc1ccc(-c2ccc(=O)n(CC(=O)Nc3ccc4c(c3)OCCO4)n2)cc1 | inactive | –
COc1cccc(C2CC(c3ccccc3Cl)Nc3ncnn32)c1 (stereo not drawn) | inconclusive: 23.1 µM [inhibitor, partial curve] | –
Cc1ccc(C(=O)Nc2cccc(-c3ccc(N4CCOCC4)nn3)c2)cc1C | inconclusive: 18.4 µM [inhibitor, single point] | –
O=C(COC(=O)c1cc[n+]([O-])cc1)Nc1ccc(Cl)cc1C(F)(F)F | inactive | –
CC1Cc2cc(/C(O)=C3/C(=O)C(=O)N(CC4CCCO4)C3c3ccco3)ccc2O1 (stereo not drawn) | inactive | –

SMILES | Potency | activity change, negative = growth inhibition
COc1ccc(NC2c3ccccc3C(=O)N2c2ccccn2)cc1Cl (stereo not drawn) | inconclusive: 9.2 µM [inhibitor, partial curve] | –
Cc1ccc(NC(=O)/C=C/c2cccc(C(F)(F)F)c2)cc1 | inconclusive: 25.9 µM [inhibitor, single point] | –
Cc1cccn2c(=O)c(C=O)c(N3CCN(c4ccc(F)cc4)CC3)nc12 | inconclusive: 29.1 µM [inhibitor, single point] | –
CCOc1ccccc1NC(=O)c1cn(C2CCCCC2)c(=O)c2c1c1ccccc1n2C | inconclusive: 14.6 µM [inhibitor, partial curve] | –
O=C(CSc1nc2cc(S(=O)(=O)N3CCOCC3)ccc2o1)NC1CCCc2ccccc21 (stereo not drawn) | inconclusive: 29.1 µM [inhibitor, single point] | –
CCCCc1ccc(NC(=O)C2(C)Cc3ccccc3C(=O)O2)cc1 (stereo not drawn) | inconclusive: 32.6 µM [inhibitor, partial curve, poor fit] | –
COc1ccc2nc(SCc3ccccc3)nc(C)c2c1 | inconclusive: 16.4 µM [inhibitor, partial curve] | –
COc1ccc(N(C)C(=O)c2cc(S(=O)(=O)N3CCc4ccccc43)cn2C)c(OC)c1 | inconclusive: 18.4 µM [inhibitor, single point] | –
COc1ccc2oc(C(=O)N3CCN(C(=O)c4ccco4)CC3)c(C)c2c1 | inconclusive: 29.1 µM [inhibitor, single point] | –
S=C(NCc1ccco1)N1CCN(C/C=C/c2ccccc2)CC1 | inconclusive: 29.1 µM [inhibitor, single point] | –
Cc1ccc(S(=O)(=O)Nc2ccc(N(C)C)cc2)cc1 | inconclusive: 20.6 µM [inhibitor, single point] | –
COc1ccc(/C=C/C(=O)NCC(=O)N/N=C/c2cc(Br)ccc2OCc2ccccc2)cc1 | inconclusive: 11.6 µM [inhibitor, partial curve] | –
COc1ccccc1N1CCN(C(=O)C2CCCN(S(=O)(=O)c3ccc(C)cc3)C2)CC1 (stereo not drawn) | active: 10.3 µM | –
COc1ccc(CNC(=O)Cn2nc(C)c3c(C)n(-c4ccccc4)nc3c2=O)cc1OC | inactive | –
Cc1ccnc2ccc([N+](=O)[O-])cc12 | inconclusive: 22.4 µM [inhibitor, partial curve, poor fit] | –
CCCCNC(=O)C1(C)CCC(=O)N1CCCn1ccnc1 (stereo not drawn) | inactive | –
O=C(CSc1nc2ccccc2[nH]1)N=Nc1c(O)[nH]c2ccccc12 | inconclusive: 13 µM [inhibitor, partial curve, poor fit] | –
CN(Cc1ccon1)C(=O)CCc1nnc(Cc2ccc(-c3ccccc3)cc2)o1 | inconclusive: 23.1 µM [inhibitor, partial curve] | –
O=C(Nc1cccc(-c2ccc(N3CCOCC3)nn2)c1)c1ccc([N+](=O)[O-])cc1 | inconclusive: 18.4 µM [inhibitor, single point] | –
O=C(CN(c1ccc(Cl)c(Cl)c1)S(=O)(=O)c1ccccc1)N1CCc2ccccc2C1 | active: 29.1 µM | –
CS(=O)(=O)N(CC(=O)Nc1ccc(S(=O)(=O)N2CCOCC2)cc1)c1ccccc1Br | inconclusive: 29.1 µM [inhibitor, single point] | –
